Measurements published in the supplement of paper PMC4604168 (melanoma cell lines).
The list shows a part of the results. Most values come without repeats; read them as rough.

These molecules were tested on MZ2-MEL (assay: cell count relative to DMSO control; melanoma cells; higher = more viable cells). Settings: library dose: low library concentration; 72 h.
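Also: cell number obtained by counting DAPI-stained nuclei in high-throughput microscope images with image analysis software, screen run in 1,536-well plates.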

Compound	cell count [%]
COc1ccc(C2=N[C@@H](c3ccc(Cl)cc3)[C@@H](c3ccc(Cl)cc3)N2C(=O)N2CCNC(=O)C2)c(OC(C)C)c1 [Nutlin-3] + c1cc(-c2cnn3cc(-c4ccc(OCCN5CCCCC5)cc4)cnc23)ccn1 [Dorsomorphin] (first compound 0.1 µM, partner dose 0.4 µM)	95
Cn1c(=O)n(-c2ccc(C(C)(C)C#N)cc2)c2c3cc(-c4cnc5ccccc5c4)ccc3ncc21 + COc1cc(N2CCC(N3CCN(C)CC3)CC2)ccc1Nc1ncc(Cl)c(Nc2ccccc2S(=O)(=O)C(C)C)n1 [NVP-TAE684] (first compound 0.004 µM, partner dose 0.08 µM)	95.2
COc1ccc(C2=N[C@@H](c3ccc(Cl)cc3)[C@@H](c3ccc(Cl)cc3)N2C(=O)N2CCNC(=O)C2)c(OC(C)C)c1 [Nutlin-3] + COc1cc2c(Oc3ccc4[nH]c(C)cc4c3F)ncnc2cc1OCCCN1CCCC1 [cediranib] (first compound 0.1 µM, partner dose 0.4 µM)	109
CC(C)C[C@H](NC(=O)[C@H](Cc1ccccc1)NC(=O)c1cnccn1)B(O)O [Bortezomib] + NC(=O)Nc1cc(-c2cccc(F)c2)sc1C(=O)N[C@H]1CCCNC1 [AZD7762] (first compound 0.001 µM, partner dose 0.02 µM)	103
CC(C)C[C@H](NC(=O)[C@H](Cc1ccccc1)NC(=O)c1cnccn1)B(O)O [Bortezomib] + O=C(O)c1ccc(-c2c[nH]c3ncc(-c4ccccc4)cc23)cc1C1CCCC1 [GSK650394] (first compound 0.001 µM, partner dose 0.16 µM)	70.5
COc1ccc(C2=N[C@@H](c3ccc(Cl)cc3)[C@@H](c3ccc(Cl)cc3)N2C(=O)N2CCNC(=O)C2)c(OC(C)C)c1 [Nutlin-3] + O=C1NC(=O)/C(=C/c2ccc(-c3ccc(F)cc3O)o2)S1 [AS252424] (first compound 0.1 µM, partner dose 1 µM)	97.3
Cn1c(=O)n(-c2ccc(C(C)(C)C#N)cc2)c2c3cc(-c4cnc5ccccc5c4)ccc3ncc21 + NCC(=O)Nc1ccc(-n2nc(C(F)(F)F)cc2-c2ccc3c(ccc4ccccc43)c2)cc1 [OSU03012] (first compound 0.004 µM, partner dose 1 µM)	108
CC(C)C[C@H](NC(=O)[C@H](Cc1ccccc1)NC(=O)c1cnccn1)B(O)O [Bortezomib] + O=C(Nc1ccccc1)c1cc([N+](=O)[O-])ccc1Cl [GW9662] (first compound 0.001 µM, partner dose 2 µM)	79.8
COc1ccc(C2=N[C@@H](c3ccc(Cl)cc3)[C@@H](c3ccc(Cl)cc3)N2C(=O)N2CCNC(=O)C2)c(OC(C)C)c1 [Nutlin-3] + Cn1cc(/C=C2\C(=O)Nc3cccnc32)c2ccccc21 [GW441756] (first compound 0.1 µM, partner dose 0.4 µM)	90.6
Cn1c(=O)n(-c2ccc(C(C)(C)C#N)cc2)c2c3cc(-c4cnc5ccccc5c4)ccc3ncc21 + OCCn1cc(-c2cnc3nnn(Cc4ccc5ncccc5c4)c3n2)cn1 [PF04217903] (first compound 0.004 µM, partner dose 1 µM)	108
Cc1cn(-c2cc(NC(=O)c3ccc(C)c(Nc4nccc(-c5cccnc5)n4)c3)cc(C(F)(F)F)c2)cn1 [nilotinib] + Oc1nc(-c2ccc(C(F)(F)F)cc2)nc2c1CSCC2 [XAV939] (first compound 0.2 µM, partner dose 2 µM)	89
COc1ccc(C2=N[C@@H](c3ccc(Cl)cc3)[C@@H](c3ccc(Cl)cc3)N2C(=O)N2CCNC(=O)C2)c(OC(C)C)c1 [Nutlin-3] + CO[C@@H]1[C@H](N(C)C(=O)c2ccccc2)C[C@H]2O[C@]1(C)n1c3ccccc3c3c4c(c5c6ccccc6n2c5c31)C(=O)NC4 [Midostaurin] (first compound 0.1 µM, partner dose 0.08 µM)	93.8
COc1ccc(C2=N[C@@H](c3ccc(Cl)cc3)[C@@H](c3ccc(Cl)cc3)N2C(=O)N2CCNC(=O)C2)c(OC(C)C)c1 [Nutlin-3] + C[C@@H]1CCN(C(=O)CC#N)C[C@@H]1N(C)c1ncnc2[nH]ccc12 [CP690550] (first compound 0.1 µM, partner dose 1 µM)	102
Cc1cn(-c2cc(NC(=O)c3ccc(C)c(Nc4nccc(-c5cccnc5)n4)c3)cc(C(F)(F)F)c2)cn1 [nilotinib] + Cn1cncc1[C@@](N)(c1ccc(Cl)cc1)c1ccc2c(c1)c(-c1cccc(Cl)c1)cc(=O)n2C [tipifarnib] (first compound 0.2 µM, partner dose 0.01 µM)	104
CC(C)C[C@H](NC(=O)[C@H](Cc1ccccc1)NC(=O)c1cnccn1)B(O)O [Bortezomib] + CC(C)CCN1c2nc(Nc3cc(F)c(O)c(F)c3)ncc2N(C)C(=O)C1C [BID1870] (first compound 0.001 µM, partner dose 0.2 µM)	97.2
Cc1cn(-c2cc(NC(=O)c3ccc(C)c(Nc4nccc(-c5cccnc5)n4)c3)cc(C(F)(F)F)c2)cn1 [nilotinib] + O=C(CCCCCCC(=O)Nc1ccccc1)NO [vorinostat] (first compound 0.2 µM, partner dose 0.08 µM)	99.7
Cn1c(=O)n(-c2ccc(C(C)(C)C#N)cc2)c2c3cc(-c4cnc5ccccc5c4)ccc3ncc21 + O=C1NC(=O)/C(=C/c2ccc(-c3ccc(F)cc3O)o2)S1 [AS252424] (first compound 0.004 µM, partner dose 1 µM)	110
CC(C)C[C@H](NC(=O)[C@H](Cc1ccccc1)NC(=O)c1cnccn1)B(O)O [Bortezomib] + COc1ccc(-c2ccc3c(N4CCOCC4)nc(N4C[C@@H](C)O[C@@H](C)C4)nc3n2)cc1CO [KU0063794] (first compound 0.001 µM, partner dose 0.02 µM)	62.1
Cc1cc(Nc2cc(N3CCN(C)CC3)nc(/C=C/c3ccccc3)n2)n[nH]1 + CC(C)(C)c1cnc(CSc2cnc(NC(=O)C3CCNCC3)s2)o1 [SNS-032] (first compound 0.04 µM, partner dose 0.01 µM)	92.4
Cc1cc(Nc2cc(N3CCN(C)CC3)nc(/C=C/c3ccccc3)n2)n[nH]1 + O=C(O)c1ccc(-c2c[nH]c3ncc(-c4ccccc4)cc23)cc1C1CCCC1 [GSK650394] (first compound 0.04 µM, partner dose 0.16 µM)	96.1
Cc1cn(-c2cc(NC(=O)c3ccc(C)c(Nc4nccc(-c5cccnc5)n4)c3)cc(C(F)(F)F)c2)cn1 [nilotinib] + COC(=O)c1sccc1S(=O)(=O)Nc1ccc(Nc2ccccc2)cc1OC [GSK0660] (first compound 0.2 µM, partner dose 1 µM)	87.9
Cn1c(=O)n(-c2ccc(C(C)(C)C#N)cc2)c2c3cc(-c4cnc5ccccc5c4)ccc3ncc21 + CO[C@@H]1[C@H](N(C)C(=O)c2ccccc2)C[C@H]2O[C@]1(C)n1c3ccccc3c3c4c(c5c6ccccc6n2c5c31)C(=O)NC4 [Midostaurin] (first compound 0.004 µM, partner dose 0.08 µM)	100
Cc1cn(-c2cc(NC(=O)c3ccc(C)c(Nc4nccc(-c5cccnc5)n4)c3)cc(C(F)(F)F)c2)cn1 [nilotinib] + NC(=O)Nc1cc(-c2cccc(F)c2)sc1C(=O)N[C@H]1CCCNC1 [AZD7762] (first compound 0.2 µM, partner dose 0.02 µM)	113
COc1ccc(C2=N[C@@H](c3ccc(Cl)cc3)[C@@H](c3ccc(Cl)cc3)N2C(=O)N2CCNC(=O)C2)c(OC(C)C)c1 [Nutlin-3] + O=c1cc(-c2cccc3c2Sc2ccccc2S3)oc(N2CCOCC2)c1 [KU55933] (first compound 0.1 µM, partner dose 1 µM)	99.5
Cc1cn(-c2cc(NC(=O)c3ccc(C)c(Nc4nccc(-c5cccnc5)n4)c3)cc(C(F)(F)F)c2)cn1 [nilotinib] + O=S(=O)(c1ccccc1)N(CC(F)(F)F)c1ccc(C(O)(C(F)(F)F)C(F)(F)F)cc1 [T0901317] (first compound 0.2 µM, partner dose 1.4 µM)	99.4
Cc1cc(Nc2cc(N3CCN(C)CC3)nc(/C=C/c3ccccc3)n2)n[nH]1 + Cc1ccc(NC(=O)c2cccc(N(C)C)c2)cc1NC(=O)c1ccc(O)cc1 [ZM336372] (first compound 0.04 µM, partner dose 2 µM)	91.1
Cn1c(=O)n(-c2ccc(C(C)(C)C#N)cc2)c2c3cc(-c4cnc5ccccc5c4)ccc3ncc21 + c1cc(-c2cnn3cc(-c4ccc(OCCN5CCCCC5)cc4)cnc23)ccn1 [Dorsomorphin] (first compound 0.004 µM, partner dose 0.4 µM)	96
COc1ccc(C2=N[C@@H](c3ccc(Cl)cc3)[C@@H](c3ccc(Cl)cc3)N2C(=O)N2CCNC(=O)C2)c(OC(C)C)c1 [Nutlin-3] + Oc1nc(-c2ccc(C(F)(F)F)cc2)nc2c1CSCC2 [XAV939] (first compound 0.1 µM, partner dose 2 µM)	100
Cc1cc(Nc2cc(N3CCN(C)CC3)nc(/C=C/c3ccccc3)n2)n[nH]1 + CCN(CC)CCCCNc1ncc2cc(-c3cc(OC)cc(OC)c3)c(NC(=O)NC(C)(C)C)nc2n1 [PD173074] (first compound 0.04 µM, partner dose 0.1 µM)	107
